Measured values from PubChem BioAssay AID504832 (National Center for Advancing Translational Sciences (NCATS), 2011).
“And” between values parts separate entries of the source, which are not always exact repeats. Equal entries are not always repeated. Hit rate of the full screen: of about 310,000 compounds, about 18,000 (5.8%) were called active. The shares of active, inactive and inconclusive entries below differ from those in the screen. Calls come from the whole dose curve; as a rule, active = well fitted inhibition curve with a large enough effect; inconclusive = small, poorly fitted or top-dose-only effect, or another doubt; inactive = no such curve, though single readings can be large or run the other way. Potencies of inconclusive entries are left out as doubtful fits.

Test: Primary qHTS for delayed death inhibitors of the malarial parasite plastid, 48 hour incubation
Conditions: P. falciparum luciferase growth in erythrocytes; series mostly up to 28.7 µM
Procedure, shortened: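 Erythrocytes infected with P. falciparum carrying an integrated firefly luciferase reporter (2% hematocrit, 0.1% parasitemia final) were exposed to compounds in RPMI 1640 with 0.5% Albumax at 37 C, 5% CO2. Growth inhibition was scored as reduced luminescence.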
% is set by controls: 0 for no effect and ±100 for the full control effect; potency is the fitted concentration of half-maximal effect; tags give direction and shape of the fitted curve.

For `CCN(CC(=O)N1CCCC1)S(=O)(=O)c1ccc(Br)cc1`, which Potency is on record?
The Potency was inconclusive [inhibitor, single point].

With `COc1ccc(CCNC(=O)COc2ccc3c(c2)OCO3)cc1` as the compound, how does the Potency read?
Its Potency is “inactive”.

Which Potency does the source give for `CCCN1CCN(CCCNC(=O)C2CCCN(c3nnc(-n4cccc4)s3)C2)CC1` (stereo unspecified) here?
Its Potency is inconclusive [inhibitor, partial curve, poor fit].

Which Potency does the source give for `COc1ccccc1CNCC(O)(c1ccc(F)cc1)c1ccc(F)cc1` here?
The Potency was active: 3.7 µM.

With `CCOC(=O)C(=NCC1CCCO1)NNc1cc(Cl)ccc1Cl` (stereo unspecified) as the compound, how does the Potency read?
Its Potency is inconclusive [inhibitor, full curve].

For `CN1C(c2ccc(F)cc2)=CS/C1=C(\C#N)c1nnc2n1-c1ccccc1SC2`, which Potency is on record?
Its Potency is inconclusive [inhibitor, partial curve].

For `COc1ccc(C(=O)N/N=C/c2sc(=O)n(Cc3cccc(C(=O)O)c3)c2Cl)cc1`, which Potency is on record?
The Potency was “inactive”.

Which Potency does the source give for `CN(CC(O)COc1ccc(S(=O)(=O)N2CCOCC2)cc1)C1CCCCC1` (stereo unspecified) here?
Its Potency is “inactive”.

For `O=C(Nc1ccc(Cl)cc1)c1ccc(-n2cccn2)c([N+](=O)[O-])c1`, which Potency is on record?
The Potency was inconclusive [inhibitor, single point].

Which Potency does the source give for `CCCC1(C(=O)OC)NC(c2ccc(OC)cc2OC)C2C(=O)N(c3cccc(C(C)=O)c3)C(=O)C21` (stereo unspecified) here?
Its Potency is inconclusive [inhibitor, partial curve, poor fit].

Which Potency does the source give for `CCCS(=O)(=O)c1c(S(=O)(=O)CCC)c2c(C)cccn2c1C(N)=O` here?
The Potency was “inactive”.

With `COc1ccccc1N1CCN(C(=O)CSc2ncnc3scc(-c4ccccc4)c23)CC1` as the compound, how does the Potency read?
The Potency was “inactive”.

With `Cc1cc(NCc2ccco2)nc2cc(O)ccc12` as the compound, how does the Potency read?
The Potency was active: 3.29 µM.

Which Potency does the source give for `O=C(Nc1ccc(Nc2ccccc2)cc1)c1ccc(Br)cc1` here?
Its Potency is “inactive”.

With `C[N+]1(C)CCC(=C(c2ccccc2)c2ccccc2)CC1` as the compound, how does the Potency read?
Its Potency is active: 6.42 µM and active: 4.15 µM.

For `Cc1ccc(NC(=O)C2C3C=CC4(O3)C2C(=O)N(CCCN2CCCC2)C4C(=O)NC2CCCCC2)cc1Cl` (stereo unspecified), which Potency is on record?
Its Potency is inconclusive [inhibitor, partial curve].

For `CC(C)CC(C(=O)NC1CCCCC1)N(Cc1cccs1)C(=O)c1snc(C(N)=O)c1N` (stereo unspecified), which Potency is on record?
The Potency was inconclusive [inhibitor, single point].

For `CC(C)(C)OC(=O)CC[C@@H](C(=O)N1CCN(C(=O)OC(C)(C)C)CC1)n1cc(C(CO)NC(=O)OC(C)(C)C)nn1` (stereo partly specified), which Potency is on record?
The Potency was inconclusive [inhibitor, partial curve].

For `O=C(CN1C(=O)/C(=C/c2cccc(Br)c2)SC1=S)N1CCCC1`, which Potency is on record?
The Potency was inconclusive [inhibitor, single point].

Which Potency does the source give for `Cc1ccc(-c2nnc(NC(=O)C3=COCCO3)o2)c(C)c1` here?
The Potency was inconclusive [inhibitor, single point].

With `CCNc1nc(C)c(CN(C(C)=O)c2ccccc2)nc1C#N` as the compound, how does the Potency read?
Its Potency is “inactive”.

With `COC(=O)C(NC(=O)c1ccccc1C)(Nc1ncc(S(=O)(=O)c2ccc([N+](=O)[O-])cc2)s1)C(F)(F)F` (stereo unspecified) as the compound, how does the Potency read?
Its Potency is active: 11.7 µM.

Which Potency does the source give for `S=C1NC2=C(CCCC2=C2SCCCS2)C(c2ccccc2)N1` (stereo unspecified) here?
Its Potency is inconclusive [inhibitor, partial curve, poor fit].

For `Cc1ccc(-n2c(SCC(=O)NCc3ccco3)nc3nc4c(cc3c2=O)COC(C)(C)C4)cc1`, which Potency is on record?
Its Potency is active: 9.28 µM.

For `Cc1ccc(F)c(Cn2cnc3c(cnn3C(C)(C)C)c2=O)c1Cl`, which Potency is on record?
The Potency was inconclusive [inhibitor, single point].

With `CCOC(=O)/C(=C/C=C1\Sc2cc(C)c(C)cc2N1CC)C(C)=O` as the compound, how does the Potency read?
Its Potency is inconclusive [inhibitor, full curve, poor fit].

Which Potency does the source give for `O=C(NCCc1ccccn1)C1CCN(S(=O)(=O)c2ccc(Cl)cc2)CC1` here?
The Potency was inconclusive [inhibitor, partial curve].

Which Potency does the source give for `COc1ccc(C(CC(=O)N2CCN(c3ccccc3)CC2)c2c(O)cc(OC)cc2OC)cc1` (stereo unspecified) here?
Its Potency is active: 10.4 µM.

With `Cc1ccc(C)c(N2CCN(c3ccncc3N)CC2)c1` as the compound, how does the Potency read?
Its Potency is inconclusive [inhibitor, partial curve].

With `CCCCC1=CC2=CC(=O)C(C)(OC(=O)CC)C(=O)C2=CN1CCN1CCOCC1` (stereo unspecified) as the compound, how does the Potency read?
The Potency was inconclusive [inhibitor, single point].

With `CCCCNC(=O)c1ccc(NC(C)=O)c(Cl)c1` as the compound, how does the Potency read?
Its Potency is “inactive”.

Which Potency does the source give for `O=C(COc1ncnc2sccc12)Nc1cccc(S(=O)(=O)N2CCOCC2)c1` here?
The Potency was inconclusive [inhibitor, single point].

With `O=C(Nc1ccc2[nH]ccc2c1)c1ccccc1` as the compound, how does the Potency read?
The Potency was “inactive”.

For `Cc1ccc(-n2ncc3c(SCc4ccccc4)ncnc32)cc1`, which Potency is on record?
The Potency was “inactive”.

For `CCCN(CCC)[C@@H]1CCc2cccc(O)c2C1`, which Potency is on record?
The Potency was active: 5.22 µM.

Which Potency does the source give for `Cc1ccc(S(=O)(=O)N(C)Cc2ccc(C(=O)NN=C3C4CC5CC(C4)CC3C5)cc2)cc1` here?
Its Potency is inconclusive [inhibitor, partial curve].

For `Nc1ccc(CN2CCCCCC2)cc1`, which Potency is on record?
Its Potency is “inactive”.

With `COc1ccccc1NS(=O)(=O)c1cc(NC(=O)CCNC(C)=O)ccc1N1CCCCC1` as the compound, how does the Potency read?
Its Potency is inconclusive [inhibitor, partial curve].

With `Cn1c(=NCC(O)COc2ccccc2)sc2ccccc21` (stereo unspecified) as the compound, how does the Potency read?
Its Potency is “inactive”.

For `CCOC(=O)C1=C(O)/C(=C/c2ccc(OCC(=O)O)c(OC)c2)SC1=Nc1ccc(OCC)cc1`, which Potency is on record?
Its Potency is inconclusive [inhibitor, partial curve, poor fit].

Which Potency does the source give for `Cc1ccc(S(=O)(=O)CC(=O)c2cc(C)c(O)c(C)c2)cc1` here?
The Potency was “inactive”.

Which Potency does the source give for `Cc1ccc(-c2c[n+](CC(=O)c3cccs3)c3n2CCC3)cc1` here?
The Potency was active: 2.33 µM.

For `CC(=O)NCCC(=O)Nc1cc(S(=O)(=O)N2CCOCC2)ccc1N1CCCC1`, which Potency is on record?
Its Potency is active: 11.7 µM.

For `CC(C)(C)c1cc(CCC(=O)NCc2ccccn2)cc(C(C)(C)C)c1O`, which Potency is on record?
Its Potency is inconclusive [inhibitor, full curve, poor fit].

Which Potency does the source give for `CNNCc1ccc(C(=O)NC(C)C)cc1` here?
Its Potency is “inactive”.

Which Potency does the source give for `Cc1cc(C)cc(N(C(=O)Cc2cccs2)C(C(=O)NC2CCCC2)c2ccc(C)o2)c1` (stereo unspecified) here?
The Potency was inconclusive [inhibitor, single point].

For `CCc1nn2c(=O)c(S(=O)(=O)Nc3ccc(C(C)C)cc3)c(C)nc2s1`, which Potency is on record?
The Potency was “inactive”.

With `CC(=O)C1=C(c2ccccc2)N(C(C)=O)n2c(C)nnc2S1` as the compound, how does the Potency read?
Its Potency is active: 2.33 µM.

Which Potency does the source give for `Cc1cccc(C)c1OC(=O)CN1C(=O)c2ccccc2C1=O` here?
The Potency was “inactive”.

With `COc1ccc(OC)c(N2C(=O)NC(=O)C3(Cc4cc(C)ccc4N(C)C3)C2=O)c1` (stereo unspecified) as the compound, how does the Potency read?
The Potency was inconclusive [inhibitor, single point].

For `CC(=O)N1CCCc2cc(S(=O)(=O)N3CCCC(C(=O)NCc4ccc(C)cc4)C3)ccc21` (stereo unspecified), which Potency is on record?
The Potency was “inactive”.

With `CCOc1ccc(C(C)=O)cc1COC(=O)CCc1cc(OC)c(OC)c(OC)c1` as the compound, how does the Potency read?
Its Potency is inconclusive [inhibitor, partial curve].

With `COC(=O)c1cc(=O)n(Cc2ccc3c(c2)OCO3)c(=Nc2ccccc2)s1` as the compound, how does the Potency read?
The Potency was inconclusive [inhibitor, single point].

For `C[C@@]12C(=O)N(c3ccc(C(F)(F)F)cc3)C(=O)N1[C@@H]1c3ccccc3OC[C@@H]1[C@H]2c1ccccc1`, which Potency is on record?
The Potency was inconclusive [inhibitor, full curve, poor fit].

Which Potency does the source give for `CC1=CC(=O)C(C(C)=Nc2ccccc2Cl)C(=O)O1` (stereo unspecified) here?
The Potency was “inactive”.

With `COc1ccccc1NC(=O)CSc1nnc(-c2ccoc2C)n1CC1CCCO1` (stereo unspecified) as the compound, how does the Potency read?
The Potency was “inactive”.

With `CCCCONc1ncnc2nonc12` as the compound, how does the Potency read?
The Potency was “inactive”.

With `Cc1ccc(NC(=O)C2CCN(C(=O)NC3CCCCC3)CC2)c(C)c1` as the compound, how does the Potency read?
Its Potency is inconclusive [inhibitor, single point].

With `Cc1nc(SCc2ccc(C(=O)O)cc2)nc2c1CCCC2` as the compound, how does the Potency read?
The Potency was inconclusive [inhibitor, single point].

Which Potency does the source give for `COc1ccc(CCC(C)NCc2ccccc2OC)cc1` (stereo unspecified) here?
Its Potency is inconclusive [inhibitor, single point].

Which Potency does the source give for `COC(=O)N/N=C/c1cc(C)n(-c2ccccc2)c1C` here?
Its Potency is “inactive”.

Which activity change, negative = inhibition does the source give for `N#Cc1ccc(Oc2c(Cl)cncc2Cl)cc1` here?
Its activity change, negative = inhibition is inactive: 5.32% [at 0.00184 µM].

Which Potency does the source give for `CCOC(=O)CCCCC(=O)c1[nH]c(=O)[nH]c1Cn1ccnc1` here?
The Potency was active: 0.465 µM.

For `CC(CC(=O)N1CCN(c2ccccc2)CC1)S(=O)(=O)c1ccc2c(c1)NC(=O)CS2` (stereo unspecified), which Potency is on record?
Its Potency is inconclusive [inhibitor, partial curve, poor fit].

For `COc1ccc(C(F)(F)F)cc1N/C=C\c1nnnn1-c1ccccc1`, which Potency is on record?
Its Potency is inconclusive [inhibitor, single point].

Which Potency does the source give for `COc1ccccc1NS(=O)(=O)c1ccc(C(=O)N2CCN(c3ccccc3O)CC2)cc1` here?
Its Potency is inconclusive [inhibitor, single point].

Which Potency does the source give for `COc1ccc(C2CC3(CC(C)(C)NC(=O)N3)Oc3cc(O)ccc32)cc1` (stereo unspecified) here?
The Potency was inconclusive [inhibitor, single point].

Which Potency does the source give for `O=C(c1ccc2c(c1)N(Cc1ccc(F)cc1)C(=O)CS2)N1CCOCC1` here?
Its Potency is inconclusive [inhibitor, single point].

For `C[C@H](CCC(=O)O)[C@H]1CC[C@@H]2[C@H]3[C@@H](C[C@@H](O)[C@]21C)[C@]1(C)CC[C@H](O)C[C@@H]1C[C@@H]3O`, which Potency is on record?
Its Potency is “inactive”.

With `COc1cc(/C=C(\C#N)c2ccccn2)ccc1OCc1ccccc1` as the compound, how does the Potency read?
Its Potency is active: 9.28 µM.

For `COc1ccc(/C=C/c2cccc[n+]2C)c(O)c1`, which Potency is on record?
Its Potency is inconclusive [inhibitor, partial curve, poor fit].
